# Assay results published in the supplement of paper PMC3334620.
# The full ranking holds about 33,000 sequences; the median of “E-score (-0.5 to 0.5)” is about -0.053, and the highest 2% start at about 0.37. The list shows a part of the results.
# Target: Hap1 (UniProt P0CE41)
# Test: PBM E-score (8-mer binding enrichment) (E-score (-0.5 to 0.5)); higher = stronger / more preferred TF binding; most listed sequences are background and not binding sites
# Settings: protein concentration: 200 nM; construct: GST-DNA-binding domain
# Protocol: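 Universal 'all 10-mer' protein binding microarrays (Agilent AMADID 015681) probed with GST-tagged S. cerevisiae TFs (full-length or DBD) made by in vitro transcription/translation (PURExpress), about 100-200 nM. Bound TF was detected with fluorescent anti-GST. Each ungapped 8-mer (which stands for itself and its reverse complement) is scored by the PBM enrichment score (E-score), a modified Wilcoxon-Mann-Whitney statistic from -0.5 to +0.5, computed with the Universal PBM Analysis Suite. Scale: above 0.35 generally sequence-specific binding.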
# Chain of UniProt P0CE41 (P0CE41 whole entry): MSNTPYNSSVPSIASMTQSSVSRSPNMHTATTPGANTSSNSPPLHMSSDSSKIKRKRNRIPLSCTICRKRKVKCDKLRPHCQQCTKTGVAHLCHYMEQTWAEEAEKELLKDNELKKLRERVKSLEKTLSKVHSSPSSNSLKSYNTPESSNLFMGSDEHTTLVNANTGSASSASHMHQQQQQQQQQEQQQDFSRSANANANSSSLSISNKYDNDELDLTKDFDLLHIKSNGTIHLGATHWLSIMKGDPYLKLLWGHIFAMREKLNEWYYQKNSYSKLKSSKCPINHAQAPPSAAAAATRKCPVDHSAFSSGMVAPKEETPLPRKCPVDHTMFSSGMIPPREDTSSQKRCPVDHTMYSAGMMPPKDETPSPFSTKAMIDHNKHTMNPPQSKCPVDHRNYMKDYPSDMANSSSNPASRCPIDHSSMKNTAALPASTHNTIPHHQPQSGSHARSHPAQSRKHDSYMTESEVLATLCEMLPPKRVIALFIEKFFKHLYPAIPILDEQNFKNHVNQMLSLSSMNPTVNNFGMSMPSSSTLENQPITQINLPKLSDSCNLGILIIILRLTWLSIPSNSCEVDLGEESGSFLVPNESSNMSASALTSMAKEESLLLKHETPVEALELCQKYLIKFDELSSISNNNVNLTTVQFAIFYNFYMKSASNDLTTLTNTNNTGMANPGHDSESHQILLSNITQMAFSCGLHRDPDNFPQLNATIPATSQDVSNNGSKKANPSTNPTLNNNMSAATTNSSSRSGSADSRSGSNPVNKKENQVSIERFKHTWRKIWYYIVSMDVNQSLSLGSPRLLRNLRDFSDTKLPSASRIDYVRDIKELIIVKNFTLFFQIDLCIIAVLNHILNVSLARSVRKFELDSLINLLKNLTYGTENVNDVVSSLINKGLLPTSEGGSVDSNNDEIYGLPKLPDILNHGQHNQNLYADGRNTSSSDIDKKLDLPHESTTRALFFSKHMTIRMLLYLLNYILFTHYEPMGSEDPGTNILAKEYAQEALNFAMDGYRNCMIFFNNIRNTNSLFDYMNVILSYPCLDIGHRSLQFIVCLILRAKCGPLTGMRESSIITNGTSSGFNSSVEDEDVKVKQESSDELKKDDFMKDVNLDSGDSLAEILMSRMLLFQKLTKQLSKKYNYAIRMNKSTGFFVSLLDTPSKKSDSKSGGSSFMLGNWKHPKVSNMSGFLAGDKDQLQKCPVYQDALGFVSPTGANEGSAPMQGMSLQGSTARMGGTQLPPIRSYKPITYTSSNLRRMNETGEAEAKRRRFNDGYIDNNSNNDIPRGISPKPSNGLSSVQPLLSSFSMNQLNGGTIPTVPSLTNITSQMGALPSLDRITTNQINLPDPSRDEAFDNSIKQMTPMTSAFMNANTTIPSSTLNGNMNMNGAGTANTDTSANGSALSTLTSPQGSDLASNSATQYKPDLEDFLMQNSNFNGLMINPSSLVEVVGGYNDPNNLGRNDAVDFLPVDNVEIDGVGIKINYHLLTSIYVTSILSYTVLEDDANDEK
row,Sequence,PBM E-score
1,ATACCTGC,-0.135
2,ATCGTAAT,0.0647
3,CCATTCAA,-0.16
4,AGCTAATG,-0.112
5,CGAGACAA,-0.131
6,GGAGACAC,0.122
7,CACTATAC,-0.157
8,AATGTGTA,-0.309
9,AGGGACGG,-0.0072
10,CGCCGCGC,0.147
11,TATCGCAA,0.0843
12,CAGAAGCC,-0.0458
13,GAGTGAAC,-0.0567
14,ACAGCGTA,-0.0549
15,GAAGGACA,0.0299
16,ACTCTACG,-0.109
17,GGCCTGAA,-0.118
18,GGAAACCA,-0.0131
19,CAATCAAC,0.0213
20,ACTTGTCG,0.0391
21,AGTTTCTC,-0.085
22,AAATGTAA,0.0697
23,CATGTCCA,-0.0578
24,CTACCCAA,-0.193
25,GTCGCGCA,-0.00208

row,Sequence,PBM E-score
1,CTACAAAG,-0.0829
2,AGTGACAG,-0.0898
3,GATCAGAA,-0.31
4,CATTCAGC,-0.147
5,AAGGGCAA,0.181
6,ATACCCCG,0.346
7,CAGCTATG,-0.287
8,CATGGACA,-0.324
9,ACCCGACC,0.241
10,GATCGACC,0.152
11,TAGGGCAA,-0.119
12,CAGTCATA,-0.0907
13,CCGCTTGA,0.195
14,AACAGGCG,-0.0897
15,GCGTGGCA,-0.192
16,ATAATGTA,-0.135
17,CAGTGTTA,0.0338
18,GTTATTCA,-0.111
19,ATGCACTA,-0.142
20,GCCCTCCC,-0.0121
21,AGCGATAT,0.11
22,CAAAATAC,-0.082
23,CCAATTGA,-0.22
24,ATCACCTG,-0.158
25,GACCCAAA,-0.00261

row,Sequence,PBM E-score
1,GGCAAGAC,0.0214
2,CGCCACCC,-0.193
3,TAAGTGAA,-0.0402
4,ATTATTGG,0.0397
5,GCTAAAGC,0.0298
6,CCTAGATC,-0.193
7,ACTCTGCA,-0.184
8,GCGAGCCA,-0.157
9,CAGATCGG,0.274
10,CGTACAGC,0.0577
11,CCCGTAAG,0.18
12,ACCATTTC,-0.0887
13,AACCCATC,-0.113
14,ATGGACAT,-0.0927
15,GTAGTGTA,-0.148
16,CCTCTTTA,-0.303
17,CGGTTCAG,0.0909
18,CAGAAATG,-0.227
19,GGGTGAGA,-0.0757
20,ATGATAGA,-0.0779
21,CCTACAAG,-0.194
22,GAGAGATA,0.0119
23,CGACTCTA,-0.164
24,CCCTGACC,-0.102
25,CACCACAG,-0.197

row,Sequence,PBM E-score
1,ACCAAACA,-0.119
2,ACAGCCCC,-0.0199
3,GCGCAGAC,-0.0399
4,AAGGCTTC,-0.0462
5,CTCCCGAC,0.035
6,ACGCGATG,0.025
7,CCAGAAGA,-0.31
8,CCTTTCAA,-0.113
9,CAAAGAAC,-0.144
10,ACCTCAAC,-0.0532
11,CCATCAGA,-0.216
12,GTATAGAA,-0.0728
13,AGGATCAC,-0.175
14,CCCTCAAG,-0.233
15,CTGACGTA,-0.024
16,CTCGGTGA,0.332
17,CTAGCGTC,-0.0893
18,ACTGTATA,-0.22
19,ATGAACGG,0.08
20,AGTGATCG,-0.199
21,ACGGCGAA,0.0956
22,ATCTGTAC,0.00451
23,CATGAAAC,-0.0437
24,TACGTCCA,-0.0359
25,CCCTGGTA,-0.373

row,Sequence,PBM E-score
1,GTCGACGA,0.0207
2,GAAAGGCA,-0.04
3,CAACCTAA,-0.301
4,GGAGTGGA,-0.119
5,CTGGTGCC,-0.217
6,ATACCATA,-0.197
7,ACGCCCGT,0.251
8,CGTTGAGC,0.0372
9,TGGACGAA,-0.0532
10,AAATAACT,0.0585
11,CATTAAGG,0.00986
12,AGCTATGG,-0.0902
13,CGACACCG,0.276
14,GGACAGTA,0.157
15,CACCTGAA,-0.0754
16,CTGCTTTA,-0.00871
17,TCGGTTCA,0.105
18,CACCTATC,-0.0149
19,CTACCGGA,0.412
20,TAAAATAA,-0.108
21,CGGACTTC,0.405
22,GCTCGACC,-0.0718
23,ACAGTAAT,-0.177
24,AACGAGCG,-0.00418
25,AAGTCGCG,-0.0433

row,Sequence,PBM E-score
1,ATTCTGCG,0.128
2,AATCTGGC,-0.0469
3,GATGCTCA,0.0473
4,AGGGCAGG,-0.118
5,CGGGAGGA,0.214
6,GATGGCGA,0.0618
7,AGAATACA,-0.0427
8,GTAGACCA,-0.229
9,AATATCGT,0.0191
10,TGCTAACA,-0.0989
11,CGTTTCAA,-0.112
12,ATTGGATA,-0.117
13,ACCTGGCA,-0.167
14,ATCTTATG,-0.179
15,ACTGGGTA,-0.124
16,AAATTTCA,-0.377
17,TACCACTA,-0.237
18,AAGAAACA,0.00593
19,GGGCACCC,-0.0275
20,ACCAGTAT,0.204
21,CAGGACAG,-0.195
22,ATCAAATC,0.00784
23,CCGATTAC,0.246
24,AATTGAGA,-0.0628
25,GAGGCCAA,-0.0324

row,Sequence,PBM E-score
1,ATGGGACA,0.0407
2,GCACGGCC,0.196
3,ACTATGAT,-0.214
4,ACATTAGC,-0.0519
5,CATTAGAA,-0.138
6,ACTTACTC,-0.09
7,CGCCTCGC,0.0121
8,CGCCCGTA,0.142
9,ACCACGAG,-0.0595
10,AGCTTGTC,0.0222
11,AATGATCG,0.067
12,ATTTATAG,-0.141
13,CCACCCCA,-0.183
14,CGGACGCA,0.35
15,ATATTACG,0.195
16,CATAAGTA,-0.0126
17,CGCCTGAG,-0.0799
18,GAAATAAA,0.198
19,CGACCGCG,0.283
20,ACACACCT,0.0496
21,AATGGTAA,0.00211
22,CAAACTGA,-0.116
23,GAGACATA,-0.111
24,CGATCACA,0.0371
25,GCTGTTGA,-0.0967

row,Sequence,PBM E-score
1,CCCTAATA,-0.0869
2,GCATTCAA,-0.105
3,ACGATGAG,-0.127
4,GTGTGCAA,-0.23
5,CAATGACA,-0.207
6,CTACAGCA,-0.0571
7,GAGACCAA,0.172
8,AATTAAGA,-0.0701
9,GCCTTTTA,-0.0799
10,ACTAAAAA,0.162
11,GATCTTCA,0.0446
12,CTCGAAAG,-0.0952
13,ACTCCCAA,-0.155
14,CTAGACAG,-0.147
15,CGTTCTAG,-0.186
16,ACTAGTAC,-0.173
17,GAACGTAA,-0.0339
18,CCCTAACA,-0.0704
19,AAGCTGTC,-0.242
20,GAGTCTGC,-0.297
21,CAGCCTTC,-0.236
22,GTACTGGA,-0.166
23,ACGTTGGA,-0.228
24,AGTCCCGC,0.0875
25,AACGAGAT,-0.0517

row,Sequence,PBM E-score
1,AGGCCCTC,-0.0634
2,CCAAGTAC,-0.217
3,AGAACGTC,-0.24
4,GATTCTCA,-0.0639
5,ACCTGCGC,0.142
6,AGGGACGC,-0.301
7,AGGCATCG,-0.053
8,AAAACGCC,0.173
9,GAGGGCCA,-0.114
10,AGACTGGC,-0.302
11,CTGTTGCA,-0.0203
12,GCTATCTA,-0.0267
13,ACCTCTTC,0.024
14,GGCTTACC,0.0444
15,CTTCACTC,0.0238
16,AAAACACT,-0.0999
17,CGTTAAGC,0.163
18,CGGTATAA,0.35
19,AACAGATT,-0.0582
